Results: PubChem BioAssay AID1345082 (National Center for Advancing Translational Sciences (NCATS), 2018)
Hit rate of the full screen: of about 94,000 compounds, about 4,000 (4.3%) were called active. Inconclusive means that the source gave no clear call. Such entries were picked first, then a sample of the others. Calls follow the shape of the dose curve; as a rule, active = well fitted inhibition curve with a large enough effect; inconclusive = small, poorly fitted or top-dose-only effect; inactive = no such curve, though single readings can be large or run the other way. Where the call is inconclusive, the potency comes from a doubtful curve fit.
% is scaled to controls: 0 for no effect and ±100 for the full control effect; potency is read from the fitted curve at half-maximal effect; tags tell the direction and shape of the fitted curve.

Test: Cytotoxic Profiling in NIH 3T3 Cell Line of Diverse Libraries Using Quantitative High-Throughput Screening; also: nearly all actives have a fitted effect of over 55% in size
Settings: NIH 3T3 viability, CellTiter-Glo ATP luminescence, 48-72 h; activity change, negative = cytotoxicity: at 96.7 µM (top of the series) unless noted; series mostly up to 96.7 µM
Method in brief: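 Mouse fibroblast NIH 3T3 cells, 400 per well, received compound via pintool and were incubated for 48 or 72 hr prior to CellTiter-Glo ATP luminescence measurement.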
With `Cc1ccc(S(=O)(=O)N2CC(C(=O)NCc3ccncc3)C3(CCOCC3)C2)c(C)c1` (stereo not drawn) the “activity change, negative = cytotoxicity” value was inactive: -23.4%. In the case of `COc1ccc(-c2noc(CC3CCN(C(=O)c4ccccc4OC)CC3)n2)cc1`, the Potency is reported as inconclusive: 11.2 µM [inhibitor, partial curve, poor fit]. For `O=C(NC1CCCc2c1[nH]c1ccc(Cl)cc21)c1ccncc1` (stereo not drawn), the Potency was inconclusive: 50.1 µM [inhibitor, partial curve, poor fit]. In the case of `O=C1CC2(CCN(C(=O)C3CCN(C(=O)Cc4ccc(F)cc4)CC3)CC2)Oc2ccccc2N1`, the “activity change, negative = cytotoxicity” value is reported as inactive: -10.8%. For `CCCNC(=O)N1CCN2C(=O)c3cc(-c4cccc(C(F)(F)F)c4)ccc3NC(=O)[C@@H]2C1`, the Potency was inconclusive: 89.1 µM [inhibitor, single point]. For `CC(C)CN1CC(CNC(=O)c2ccc(Oc3ccccc3)cc2)Oc2ccnc(-c3ccc(OCC(=O)O)cc3)c2C1=O` (stereo not drawn), the Potency was inconclusive: 70.8 µM [inhibitor, single point]. With `CC(C)c1noc(-c2cn(C3CCN(C(=O)c4ccc5[nH]ccc5c4)CC3)nn2)n1` the Potency was inconclusive: 35.5 µM [inhibitor, partial curve, poor fit]. With `O=C(COc1ccccc1)NC[C@H]1O[C@H](Cc2cc(-c3ccccc3)on2)CC[C@@H]1O` the Potency was inconclusive: 100 µM [inhibitor, partial curve]. With `Cc1nc(C)c(CN2CCOC[C@H](Oc3ccc(S(C)(=O)=O)cc3)C2)s1` the Potency was inconclusive: 112 µM [inhibitor, single point]. For `CCOC(=O)c1ccc(NC(=O)Cn2c(N3CCc4ccccc4C3)nc(C)cc2=O)cc1`, the Potency was active: 31.6 µM. With `Cc1onc(-c2cnn(C)c2NCc2ccc(C#N)cc2)c1C(=O)N1CCN(C)CC1` the Potency was inconclusive: 112 µM [inhibitor, partial curve]. With `O=C(Cn1c(=O)oc2ccccc21)N1CCC(N2CC3CC(C2)[C@H]2CCCC(=O)N2C3)CC1` (stereo partly drawn) the “activity change, negative = cytotoxicity” value was inactive: 3.29%. In the case of `CCC1Oc2ccc(NC(=O)C3CCCC3)cc2CN(Cc2ccc(F)cc2Cl)C1=O` (stereo not drawn), the Potency is reported as inconclusive: 39.8 µM [inhibitor, partial curve]. With `O=c1c2nc(-c3ccsc3)ccc2ncn1-c1ccc(F)cc1F` the Potency was active: 44.7 µM. In the case of `Cc1ccccc1N(C)C1CN(Cc2ccccc2)C1`, the Potency is reported as active: 89.1 µM. For `COc1cccc(N2C(=O)NC(=NC3CCCCC3)C23CCN(CC2CCCCC2)CC3)c1`, the Potency was inconclusive: 50.1 µM [inhibitor, partial curve, poor fit]. For `Cn1ncc2c(C(=O)Nc3cccc(Cl)c3)cc(-c3cccc(F)c3)nc21`, the Potency was inconclusive: 44.7 µM [inhibitor, partial curve, poor fit]. In the case of `CCc1ccc(C(=O)N2CCN(c3cc(-c4ccc(OC)cc4)[nH]n3)CC2)cc1`, the Potency is reported as inconclusive: 10 µM [inhibitor, partial curve, poor fit]. With `O=C(Cc1cccc(C(F)(F)F)c1)N1CCCc2ncc(C(=O)N3CCC[C@@H]3c3ccc(F)cc3)cc21` the Potency was inconclusive: 56.2 µM [inhibitor, partial curve, poor fit]. In the case of `Cc1cc(C)cc(-c2ccc(CN3CCCC3C(=O)Nc3cccc(Cl)c3)cc2)c1` (stereo not drawn), the Potency is reported as inconclusive: 50.1 µM [inhibitor, partial curve, poor fit]. With `COc1ccc2[nH]c3c(c2c1)CCN(C)C31CCN(C(=O)c2cc(C)[nH]n2)CC1` the “activity change, negative = cytotoxicity” value was inactive: -3.11%. In the case of `COCc1nc(CCNC(=O)c2ccc(OC)cc2)no1`, the “outcome” value is reported as “inactive”. For `O=C(c1ccc(C(F)(F)F)cc1)N1CCC2(CNc3ccccc3[S+](=O)([O-])N2)C1` (stereo not drawn), the Potency was inconclusive: 39.8 µM [inhibitor, partial curve, poor fit]. For `CCC(=O)N(C1CCOCC1)C1CCN(S(=O)(=O)c2ccc(F)c(F)c2)CC1`, the “activity change, negative = cytotoxicity” value was inactive: -25.7%. In the case of `CCC1Oc2ccc(NC(=O)Cc3ccccc3)cc2CN(Cc2ccc(F)cc2)C1=O` (stereo not drawn), the Potency is reported as inconclusive: 44.7 µM [inhibitor, partial curve, poor fit]. With `COc1ccc(-c2ccc3nnc(CNC(=O)c4cccc(NC(C)=O)c4)n3n2)cc1` the “activity change, negative = cytotoxicity” value was inactive: -14%. In the case of `c1ccc(CC2=NOC3(CCN(Cc4ccccc4)C3)C2)cc1` (stereo not drawn), the Potency is reported as inconclusive: 112 µM [inhibitor, partial curve, poor fit]. With `COc1ccc2c(c1)OCC(CNC(=O)c1ccc(-c3nnn(C)n3)cc1)C2` (stereo not drawn) the Potency was inconclusive: 89.1 µM [inhibitor, single point]. With `O=C(CCCc1c[nH]c2ccccc12)N1CCC(c2noc(COc3ccc(F)cc3)n2)CC1` the Potency was inconclusive: 20 µM [inhibitor, full curve]. For `O=C(c1nnc(CN2CCN(c3ccccn3)CC2)n1-c1cccnc1)N1CCC[C@@H]1c1cccc(F)c1`, the Potency was inconclusive: 70.8 µM [inhibitor, single point]. In the case of `O=C(NCCc1cccs1)C1CCN(c2cc(C(F)(F)F)ncn2)CC1`, the Potency is reported as inconclusive: 28.2 µM [inhibitor, partial curve, poor fit]. For `c1ccc(Nc2cc3c(cn2)CN(Cc2ccc4[nH]ccc4c2)CCN3)cc1`, the Potency was active: 28.2 µM. For `COc1ccc(OCC2(C)COc3ccc(C(=O)NCC(C)C)cc3N2)cc1` (stereo not drawn), the Potency was inconclusive: 89.1 µM [inhibitor, partial curve, poor fit]. For `O=C(c1cccc(Cl)c1)N1CCC(c2nn(-c3ccccn3)c(=O)[nH]2)CC1`, the Potency was inconclusive: 50.1 µM [inhibitor, partial curve, poor fit]. For `Cc1cc(=O)n(CC(=O)NCc2ccccc2Br)c(N2CCc3ccccc3C2)n1`, the Potency was inconclusive: 44.7 µM [inhibitor, partial curve, poor fit]. For `C=CCNc1nc(CC)nc2c1CCN(C(=O)c1cn(C)nc1C)CC2`, the “outcome” value was “inactive”. In the case of `O=C(c1cccc2[nH]ccc12)N1CCC2(CC1)N=C(c1cccc(Br)c1)NO2`, the Potency is reported as inconclusive: 70.8 µM [inhibitor, single point]. In the case of `COc1ccc(-c2nc(C(C)C)nc3c2CCN([S+](=O)([O-])c2cccc(C(F)(F)F)c2)CC3)cc1`, the Potency is reported as inconclusive: 44.7 µM [inhibitor, partial curve, poor fit].
